Reference: PubChem BioAssay AID1159614 (National Center for Advancing Translational Sciences (NCATS), 2016)
Screen size: about 45,000 compounds; about 65 (0.1%) were called active. Calls come from the whole dose curve; as a rule, active = well fitted activation curve with a large enough effect; inconclusive = small, poorly fitted or top-dose-only effect; inactive = no such curve, though single readings can be large or run the other way. This is one part of the list.

What follows are compounds tested against Galactocerebrosidase (Homo sapiens) (UniProt P54803) (assay: A Novel Cell-Based Assay to Identify Small Molecules for B -Galactocerebrosidase). Settings: 145M-Twi-hGALC-G270D cells (Twitcher mouse brain line with human GALC G270D), HMU-beta-Gal fluorescence, 48 h; series mostly up to 57.5 µM; activation: at the top concentration.
Procedure, shortened: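 Fluorescence readout: HMU-β-gal cleavage by mutant GALC (0.1 mM final, citrate/phosphate pH 5.2 with 1 mg/mL taurocholate), stopped with carbonate/bicarbonate plus Triton X-100. Cells: murine Twitcher 145M-Twi expressing human G270D GALC; qHTS for activators.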
Note: 0% is about no effect; nearly all actives have a fitted effect of over 65% in size.

Chain of UniProt P54803 (P54803 whole entry, looked up): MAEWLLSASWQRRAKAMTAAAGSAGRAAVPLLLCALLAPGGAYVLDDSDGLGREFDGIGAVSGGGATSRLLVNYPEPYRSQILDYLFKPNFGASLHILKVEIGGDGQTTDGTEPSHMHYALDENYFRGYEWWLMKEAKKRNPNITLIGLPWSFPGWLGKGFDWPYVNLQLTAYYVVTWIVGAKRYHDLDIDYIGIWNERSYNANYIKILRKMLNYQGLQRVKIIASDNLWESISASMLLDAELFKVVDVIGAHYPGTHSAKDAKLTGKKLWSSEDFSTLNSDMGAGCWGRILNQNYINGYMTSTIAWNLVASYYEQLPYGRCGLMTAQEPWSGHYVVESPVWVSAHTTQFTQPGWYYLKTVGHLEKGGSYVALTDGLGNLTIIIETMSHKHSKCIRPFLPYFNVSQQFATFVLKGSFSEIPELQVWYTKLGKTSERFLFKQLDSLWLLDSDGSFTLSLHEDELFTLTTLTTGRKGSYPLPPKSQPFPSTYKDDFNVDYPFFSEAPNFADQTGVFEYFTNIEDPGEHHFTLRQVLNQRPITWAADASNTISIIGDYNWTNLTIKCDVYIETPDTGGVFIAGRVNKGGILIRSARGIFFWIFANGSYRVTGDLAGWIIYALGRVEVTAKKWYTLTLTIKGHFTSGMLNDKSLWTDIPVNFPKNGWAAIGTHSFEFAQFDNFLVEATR

activation, inactive:
O=C(Cn1cc(SCc2cccc(Cl)c2)c2ccccc21)N1CCOCC1 -10.6%
COc1cc(C(=O)NC2CC(=O)N(c3cccc(F)c3)C2)cc(OC)c1OC (stereo unspecified) -4.48%
COc1ccc(-c2ccnc3c(-c4ccc(F)cc4)c(C)nn23)cc1OC -11%
Cc1ccc(NC(=O)C2CCCN2S(=O)(=O)c2cccc3cccnc23)cc1 (stereo unspecified) -12.6%
Cc1cc(C)n2nc(CNS(=O)(=O)c3ccc(Cl)cc3)nc2n1 -13.1%
CC1CN(C(=O)N2CCC(C(=O)NC3CCCCCC3)CC2)c2cc(Cl)ccc2O1 (stereo unspecified) -8.52%
COc1ccccc1N1CCN(S(=O)(=O)c2ccc(F)c(C(=O)Nc3ccc(C)c(F)c3)c2)CC1 -7.84%
CCOc1ccc2nc(N3CCCC(C(=O)Nc4ccc(Br)c(C)c4)C3)sc2c1 (stereo unspecified) -19.4%
COc1ccc(NC(=O)c2ccco2)cc1NC(=O)COc1cc(C)cc(C)c1 -8.76%
CCC(=O)N1CCc2cc(Br)cc(S(=O)(=O)N3CCN(c4ccccc4)CC3)c21 -8.33%
CCc1nnc2c(NCc3ccc(F)cc3)nc3ccccc3n12 -20.6%
COc1ccc(CNC(=O)C2CCCN(S(=O)(=O)c3ccc4c(c3)CCCN4C(C)=O)C2)cc1 (stereo unspecified) -16.3%
Cc1ccc(C(C)C)c(OCCn2cc(C(=O)c3ccco3)c3ccccc32)c1 -16.8%
O=C(Nc1cc(Cl)cc(Cl)c1)c1ccc(F)c(S(=O)(=O)N2CCCCCC2)c1 -16.3%
COc1ccccc1N1CCN(C(=O)c2oc3ccccc3c2NC(=O)C(C)Oc2ccccc2)CC1 (stereo unspecified) -19.8%
CCOc1ccc(-c2n[nH]c3c2C(c2ccccc2OC)N(c2ccc(Br)cc2)C3=O)cc1 (stereo unspecified) -3.97%
COc1ccc2c(c1)NC(c1ccc(OCC(C)C)cc1)=NC(c1ccncc1)=N2 -12.1%
COc1ccc(CCNC(=O)c2cc(Sc3cccc(Cl)c3)nc3ccccc23)cc1OC -10.3%
COc1ccc2c(c1)CC(C(=O)N1CCC(C(N)=O)CC1)CO2 (stereo unspecified) -11.3%
COC(=O)c1cc2oc(C)cc2n1Cc1c(C)cc(C)cc1C -15%
CCN(CC)c1ccc(NS(=O)(=O)c2ccc3c(c2)CCCN3C(C)=O)c(C)c1 -14.7%
COc1cc2c(=O)n(Cc3ccccc3)c(=O)n(CC(=O)Nc3cc(C(F)(F)F)ccc3Cl)c2cc1OC -17.1%
O=C(Cn1cccc1C(=O)c1ccccc1)NCc1ccc(F)cc1 -10.4%
CN1C(C(=O)Nc2ccc(OC(F)(F)F)cc2)=CC(c2ccc3c(c2)OCO3)=NS1(=O)=O -12.9%
Cc1ccc(OC(=O)c2snnc2C)cc1C -14.4%
CCCN1CCN(CCNC(=O)Nc2cc(OC)cc(OC)c2)CC1 -1.85%
O=C(CSc1ncc2c(n1)-c1ccccc1N(Cc1ccc(F)cc1)S2(=O)=O)c1ccc(Br)cc1 -15.1%
Cc1ccc(NC(=O)C(=O)NCC(c2ccc3c(c2)OCO3)N2CCOCC2)c(C)c1 (stereo unspecified) -7.6%
CCc1ccc(N2CCn3c2nc2c3c(=O)n(Cc3cccc(C)c3)c(=O)n2C)cc1 -5.53%
CCOC(=O)c1c(C)oc2ncnc(NCCc3ccccc3)c12 -19.4%
COc1ccc(C2c3c(n(C)c4ccccc34)C(=O)N2CC(=O)Nc2ccc(Cl)cc2)cc1 (stereo unspecified) -3.01%
COc1cc2nc(SCC(=O)Nc3ccc(F)cc3)n3nc(CCn4c(C)nc5ccccc54)nc3c2cc1OC -4.26%
COc1ccc(OCC(=O)Nc2cc(-c3cccc(Cl)c3)nn2-c2ccccc2)cc1 -17.4%
CCc1ccc(Nc2cc(C)nc3nc(Cc4ccc(Cl)cc4)nn23)cc1 5.97%
CC(C)c1ccc(OCc2cc(=O)n3c4c(sc3n2)CCCC4)cc1 2.89%
Cc1cccc(NC(=O)CSc2nc3ccc(NC(=O)c4cccs4)cc3s2)c1 -26.8%
CCN(CC)CCN(C(=O)c1ccco1)c1nc2c(C)cccc2s1 -12.2%
COc1ccc(-c2oc3ncn4nc(-c5ccc(Cl)cc5)nc4c3c2-c2ccc(OC)cc2)cc1 2.91%
COc1ccccc1NC(=O)CN(c1ccc(C(C)C)cc1)S(=O)(=O)c1c(C)noc1C -11.1%
CCOC(=O)c1ccc(CSc2nnc3cc(C)c4ccccc4n23)cc1 0.519%
O=C(NC1CCCCC1)c1ccc2c(c1)sc1nc(-c3ccccc3)cn12 -2.5%
N#Cc1ccc(C(=O)N2CCN(c3nc4ccc(F)cc4s3)CC2)cc1 -8.71%
COc1ccc(CNC(=O)CC2N=C3c4ccccc4N=C(SCC(=O)Nc4ccc(N(C)C)cc4)N3C2=O)cc1 (stereo unspecified) -3.13%
Cc1ccc(CN2c3ccccc3S(=O)(=O)c3ccccc32)cc1 -15.3%
O=C(CSc1oc(-c2ccco2)nc1S(=O)(=O)c1ccc(Cl)cc1)c1ccc(Cl)cc1 -10.9%
Cc1ccc2oc(=O)c3cc(C(=O)N(Cc4ccccc4)C(C)C)sc3c2c1 -25.5%
CCCCCNC(=O)C(=O)NCC(c1ccc2c(c1)OCO2)N1CCOCC1 (stereo unspecified) -17.9%
Cc1ccc(CSc2nc(=O)c3c(n2C)NC(=O)CC3c2ccc(OC(C)C)cc2)cc1 (stereo unspecified) -14.6%
CCN1CCC(N(Cc2cccc(OC)c2)C(=O)Nc2ccc(C)cc2Cl)CC1 1.17%
COC(=O)C1=C(C)NC(C)=C(C(=O)OCCc2ccc(N3CCN(C(c4ccccc4)c4ccccc4)CC3)cc2)C1c1cccc([N+](=O)[O-])c1 (stereo unspecified) -16.8%
CCC(C(=O)Nc1cccc(C#N)c1)n1c(=O)c(-c2ccccc2NC(C)=O)nc2ccccc21 (stereo unspecified) -14.7%
Cc1ccc(S(=O)(=O)Nc2cc3c(cc2N2CCOCC2)n(C)c(=O)n3C)c(C)c1 -18.5%
Cc1ccc2c(c1)c1c(c(=O)n(Cc3ccccc3)c(=O)n1CC(=O)Nc1ccccc1C)n2C 5.23%
Cc1ccc(NC(=O)Cn2c(-c3ccc4c(c3)OCO4)cn(-c3ccccc3)c2=O)cc1 -21%
COc1ccc(-c2c3c(=O)n(C)c(=O)n(C)c3c3c(-c4ccc(C)cc4)nc4ccccc4n23)cc1 -24.3%
Cc1cc(O)c(C(c2ccccc2Cl)N2CCN(c3ccccc3)CC2)c(=O)n1Cc1ccco1 (stereo unspecified) -0.869%
Cc1ccc(C)c(NC(=O)CCCn2nc(C)c3sc4ccccc4c3c2=O)c1 -6.96%
COc1cc(NC(=O)c2cnn(-c3cccc(F)c3)c2C2CCNCC2)cc(OC)c1OC -27.6%
CCc1nnc(NC(=O)CSCc2cc(=O)c3ccc(C)cc3[nH]2)s1 6.99%
COc1ccc(NC(=O)CN(Cc2ccccc2)S(=O)(=O)c2ccc3nc(C)sc3c2)cc1 6.38%
COc1cc(CN(C(=O)COc2ccc(C)c(C)c2)c2ccccn2)cc(OC)c1OC -3.93%
CCCN(CCC)CCNC(=O)c1cc2c(-c3ccccc3F)nn(C)c2s1 -7.98%
O=C(NCc1ccc(F)cc1)c1ccc(NC(=O)N2CC3CCCN3c3ccccc32)cc1 (stereo unspecified) -9.97%
COCCNC(=O)C1CCCN(S(=O)(=O)c2ccc3c(ccn3C)c2)C1 (stereo unspecified) -17.6%
CCOc1ccc(-c2cnc(NCc3ccc(OC)cc3OC)n2C)cc1 -10%
Cc1ccc(NC(=O)c2cccn2-c2nnc(N3CCCCC3)s2)cc1Cl -18.8%
O=C1c2oc3ccc(F)cc3c(=O)c2C(c2cccc([N+](=O)[O-])c2)N1CCCN1CCOCC1 (stereo unspecified) -13.2%
Cn1nc(C(=O)N2CCN(c3ccccc3F)CC2)c2c1-c1ccccc1SC2 0.496%
CCN(CC)CCNC(=O)Cn1ncc2c([nH]c3ccccc32)c1=O -7.62%
CCCCN(CC)CCCNC(=O)c1cc2c(-c3ccc(OC)c(OC)c3)nn(C)c2s1 -4.72%
COc1ccc(CNC(=O)COCc2cc(-c3cccs3)on2)cc1OC -5.14%
CCCCNC(=O)CCCn1c(=O)c2ccccc2n(Cc2ccccc2C)c1=O -4.6%
CCc1c(C)sc2c1CCN(Cc1ccc(F)cc1)C2c1ccccc1 (stereo unspecified) -10.4%
Cc1ccc(CSc2cn(CC(=O)N3CCCCC3)c3ccccc23)cc1 -2.93%
CCc1ccc(CN(C(=O)c2cc3ccccc3oc2=O)C2CCS(=O)(=O)C2)cc1 (stereo unspecified) -13.4%
Cc1ccc2nc(N(Cc3cccnc3)C(=O)C3COc4ccccc4O3)sc2c1 (stereo unspecified) -3.06%
CC(=O)c1ccc(NC(=O)c2ncn(-c3ccccc3)n2)cc1 -16.8%
COc1ccc(Cl)cc1NC(=O)CCC(=O)c1ccc(C)cc1 -17.9%
Cc1ccc(C2=Nc3ccccc3N(CC(=O)Nc3cccc(F)c3)C(=O)C2)cc1C -3.67%
COc1ccc(-c2noc(-c3ccc(NCc4ccccc4OC)c([N+](=O)[O-])c3)n2)cc1 -12.4%
CC(=O)c1[nH]c(C)c(C(=O)NCCc2ccc(C)cc2)c1C -13.6%
CN(C)C(=O)CNC(=O)Cc1ccccc1 -9.62%
CC(=O)Nc1cccc(C(=O)NCc2ccc3c(c2)CCN3C(C)=O)c1 -6.72%
CCn1cc(C(=O)NCCc2ccccc2)c(=O)c2cc(S(=O)(=O)N(C)C3CCCCC3)ccc21 -2.31%
CCOc1ccccc1N(C)C(=O)C1CCCN(c2ncnc3onc(-c4ccc(F)cc4)c23)C1 (stereo unspecified) -12.9%
Cc1c(CCNC(=O)Cc2ccccc2)sc2nc(-c3ccc(F)cc3)nn12 -15.3%
O=C(CN1CCN(Cc2ccc(Cl)cc2)C1=O)NCc1ccc(F)cc1 -2.15%
Cc1cc(C)c(NC(=O)CSc2nccn2Cc2ccco2)c(C)c1 -18.2%
Cc1ccc(NC(=O)CCCn2c(=O)c3cccn3c3cccnc32)c(Cl)c1 -8.69%
CN(C)CCCNc1oc(/C=C/c2ccc(F)cc2)nc1C#N -11.5%
O=c1oc2c3c(ccc2c2ccccc12)OCN(Cc1cccc(Cl)c1)C3 -17.4%
COc1ccc(-c2cc(=O)c3cc(OCC(=O)OC(C)C)ccc3o2)cc1 -10.2%
Cc1cc(C)c(NC(=O)CCn2c(=O)c3cccn3c3ccccc32)c(C)c1 -9.86%
CCN1CCN(C(c2ccc(SC)cc2)c2c(O)cc(C)n(Cc3ccco3)c2=O)CC1 (stereo unspecified) -16.2%
COc1ccccc1NC(=O)C1CCN(S(=O)(=O)c2ccc3[nH]c4c(c3c2)CCCCC4)CC1 -16.9%
O=C(COC(=O)C(Cc1c[nH]c2ccccc12)NC(=O)c1ccc(Cl)cc1)c1ccc(Cl)cc1 (stereo unspecified) -14.3%
